# Assay results as given in the supplement of paper PMC9046079.
# Where a name gives a salt, the structure may show the parent alone. ± gives the standard deviation of the averaged measurements. The list shows a part of the results.
# Tests used:
# [1] = system: murine small intestinal organoids (ENR+CD Paneth differentiation); assay: cellular ATP (CellTiter-Glo 3D) relative to plate median (log10 fold change); higher = more viable cells; conditions: 6 d
# [2] = system: murine small intestinal organoids (ENR+CD Paneth differentiation); assay: carbachol-stimulated secreted lysozyme activity relative to plate median (log10 fold change); higher = more Paneth cell lysozyme secretion; conditions: 6 d, carbachol 10 µM
# [3] = system: murine small intestinal organoids (ENR+CD Paneth differentiation); assay: basal (non-stimulated) secreted lysozyme activity relative to plate median (log10 fold change); higher = more Paneth cell lysozyme secretion; conditions: 6 d
# 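Wherever basal (non-stimulated) secreted lysozyme activity relative to plate median is given: ISC-enriched organoid precursors grown as 2.5D pseudo-monolayer on Matrigel, compound given on day 0 and day 3, plate values LOESS-normalized before median fold change, three murine donors.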
# 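Wherever cellular ATP (CellTiter-Glo 3D) relative to plate median is given: 2.5D pseudo-monolayer culture of ISC-enriched organoids partly embedded atop Matrigel, compound added on day 0 and again on day 3, per-plate LOESS correction before median fold change.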
Structure (SMILES),cellular ATP (log10) ([1]; 0.08 µM),cellular ATP (log10) ([1]; 0.4 µM),cellular ATP (log10) ([1]; 2 µM),cellular ATP (log10) ([1]; 10 µM),carbachol-stimulated secreted lysozyme activity (log10) ([2]; 0.08 µM),carbachol-stimulated secreted lysozyme activity (log10) ([2]; 0.4 µM),carbachol-stimulated secreted lysozyme activity (log10) ([2]; 2 µM),carbachol-stimulated secreted lysozyme activity (log10) ([2]; 10 µM),basal (log10) ([3]; 0.08 µM),basal (log10) ([3]; 0.4 µM),basal (log10) ([3]; 2 µM),basal (log10) ([3]; 10 µM)
C=C1C(=O)O[C@H]2[C@H]1CC/C(C)=C/CC[C@@]1(C)O[C@@H]21 [(-)-Parthenolide],0.135 ± 0.043,0.228 ± 0.13,0.157 ± 0.15,0.157 ± 0.44,0.0771 ± 0.089,0.166 ± 0.2,0.0532 ± 0.024,-0.00902 ± 0.031,0.0581 ± 0.012,0.0669 ± 0.081,0.0891 ± 0.013,0.133 ± 0.074
CCN[C@H]1CN(CCCOC)S(=O)(=O)c2sc(S(N)(=O)=O)cc21 [Brinzolamide],-0.00717 ± 0.27,-0.0681 ± 0.16,0.118 ± 0.099,0.0779 ± 0.22,-0.0961 ± 0.13,0.00972 ± 0.0019,-0.0214 ± 0.029,0.0296 ± 0.014,0.133 ± 0.095,0.0841 ± 0.098,0.0586 ± 0.088,0.0598 ± 0.051
O=C(N/N=C/c1ccc(O)c(O)c1)c1cc2ccccc2cc1O [Dynasore],-0.248 ± 0.34,-0.253 ± 0.79,-0.152 ± 0.48,-0.0108 ± 0.18,0.161 ± 0.13,0.235 ± 0.18,0.0135 ± 0.0062,0.0899 ± 0.031,0.0495 ± 0.079,-0.0202 ± 0.055,0.0361 ± 0.033,0.0476 ± 0.099
C#Cc1cccc(Nc2ncnc3cc4c(cc23)OCCOCCOCCO4)c1 [Icotinib],-0.0196 ± 0.11,-0.0612 ± 0.21,-0.406 ± 0.31,-1.07 ± 0.16,0.106 ± 0.042,-0.0914 ± 0.12,-0.25 ± 0.061,-0.499 ± 0.028,0.0293 ± 0.069,-0.0726 ± 0.029,-0.133 ± 0.026,-0.289 ± 0.042
NC(=O)c1cccc(-c2cc(Nc3ccc(OC(F)(F)F)cc3)ncn2)c1,0.157 ± 0.24,0.0896 ± 0.4,0.0736 ± 0.12,0.101 ± 0.22,0.111 ± 0.072,-0.116 ± 0.26,-0.00525 ± 0.037,-0.0498 ± 0.06,0.159 ± 0.15,-0.0237 ± 0.18,0.0117 ± 0.068,-0.0329 ± 0.035
NC(=O)C1CCCc2c1[nH]c1ccc(Cl)cc21 (stereo not drawn) [EX 527 (Selisistat)],0.24 ± 0.068,0.174 ± 0.11,0.341 ± 0.18,0.32 ± 0.22,0.0731 ± 0.2,0.0613 ± 0.0094,-0.0997 ± 0.2,-0.0736 ± 0.11,0.1 ± 0.091,0.0588 ± 0.048,0.03 ± 0.067,0.0567 ± 0.07
C[C@@H]1COCCN1c1cc(C2(S(C)(=O)=O)CC2)nc(-c2cccc3[nH]ccc23)n1,-0.21 ± 0.46,-0.218 ± 0.35,-1.05 ± 0.42,-0.573 ± 0.14,0.0242 ± 0.053,-0.24 ± 0.27,-0.449 ± 0.024,-0.396 ± 0.045,0.0419 ± 0.12,-0.14 ± 0.11,-0.215 ± 0.077,-0.261 ± 0.084
CNC(=O)c1cc(Oc2ccc(NC(=O)Nc3ccc(Cl)c(C(F)(F)F)c3)cc2)ccn1 [Sorafenib],0.0432 ± 0.2,0.0517 ± 0.25,-0.229 ± 0.55,0.0905 ± 0.077,0.0356 ± 0.16,0.147 ± 0.11,-0.00826 ± 0.014,-0.018 ± 0.0091,0.0281 ± 0.11,0.184 ± 0.24,-0.04 ± 0.0078,0.0743 ± 0.13
S=C=Nc1cccc(NC(=S)NCCCCNC(=S)Nc2cccc(N=C=S)c2)c1,-0.142 ± 0.18,0.061 ± 0.33,-0.159 ± 0.2,-0.228 ± 0.26,0.0431 ± 0.038,0.0189 ± 0.053,0.00683 ± 0.073,0.0702 ± 0.12,0.116 ± 0.077,0.0357 ± 0.062,0.031 ± 0.094,0.0317 ± 0.099
CC1=C(C(=O)Nc2cc3cn[nH]c3cc2F)C(c2ccc(C(F)(F)F)cc2)CC(=O)N1 (stereo not drawn),0.527 ± 0.2,0.545 ± 0.19,0.488 ± 0.29,0.37 ± 0.2,0.246 ± 0.054,0.271 ± 0.16,0.247 ± 0.12,0.155 ± 0.13,0.137 ± 0.11,0.128 ± 0.06,0.14 ± 0.09,0.0594 ± 0.1
COc1c(O)cc2c(c1O)[C@@H]1O[C@H](CO)[C@@H](O)[C@H](O)[C@H]1OC2=O [Bergenin],0.288 ± 0.12,0.245 ± 0.057,0.205 ± 0.37,0.344 ± 0.25,0.154 ± 0.084,0.0318 ± 0.029,0.123 ± 0.15,0.0725 ± 0.098,0.164 ± 0.092,0.0978 ± 0.11,0.0803 ± 0.056,0.103 ± 0.093
O=C(Nc1cccnc1)N1CCC(Cc2cccc(Oc3ccc(C(F)(F)F)cn3)c2)CC1,-0.0468 ± 0.26,0.0524 ± 0.19,-0.103 ± 0.075,-0.286 ± 0.12,-0.0289 ± 0.15,-0.0825 ± 0.017,-0.068 ± 0.03,-0.195 ± 0.12,0.0611 ± 0.033,-0.0767 ± 0.0077,-0.015 ± 0.019,-0.131 ± 0.056
Cc1cn(-c2cc(NC(=O)c3ccc(C)c(Nc4nccc(-c5cccnc5)n4)c3)cc(C(F)(F)F)c2)cn1 [Nilotinib (AMN-107)],0.322 ± 0.12,0.348 ± 0.075,0.242 ± 0.059,-0.012 ± 0.22,0.215 ± 0.038,0.27 ± 0.0072,0.0302 ± 0.13,-0.202 ± 0.13,0.196 ± 0.021,0.162 ± 0.072,0.0852 ± 0.062,-0.0925 ± 0.029
Cc1nn(-c2ccccc2)c(C)c1C=NN1CCN(Cc2ccccc2)CC1,0.283 ± 0.25,0.246 ± 0.36,0.0446 ± 0.43,-0.0595 ± 0.091,-0.00112 ± 0.14,0.113 ± 0.17,0.145 ± 0.15,-0.147 ± 0.059,0.0686 ± 0.095,0.0061 ± 0.056,0.125 ± 0.086,-0.0636 ± 0.037
O=C(Cc1ccc(-c2ccc(OCCN3CCOCC3)cc2)cn1)NCc1ccccc1,-0.752 ± 0.12,-1.25 ± 0.28,-1.98 ± 0.52,-1.41 ± 0.87,-0.45 ± 0.023,-0.467 ± 0.031,-0.505 ± 0.057,-0.479 ± 0.075,-0.283 ± 0.07,-0.292 ± 0.1,-0.251 ± 0.09,-0.286 ± 0.081
O=C(c1cn(Cc2cncn2Cc2ccc(Br)cc2)cc1-c1cccc2ccccc12)N1CCOCC1,-0.0718 ± 0.077,-0.342 ± 0.47,-0.116 ± 0.45,-0.706 ± 0.49,-0.127 ± 0.088,-0.213 ± 0.13,-0.333 ± 0.044,-0.341 ± 0.049,-0.116 ± 0.032,-0.14 ± 0.059,-0.176 ± 0.11,-0.182 ± 0.14
CC(=O)OCC(=O)NCCCOc1cccc(CN2CCCCC2)c1 [Roxatidine Acetate HCl],0.0434 ± 0.47,0.128 ± 0.3,0.0603 ± 0.38,-0.13 ± 0.36,-0.133 ± 0.076,-0.0294 ± 0.12,-0.0188 ± 0.17,-0.084 ± 0.13,0.0126 ± 0.13,-0.008 ± 0.094,0.0524 ± 0.095,-0.0368 ± 0.061
Nc1nc(NCCNc2ncc(-n3ccnc3)c(-c3ccc(Cl)cc3Cl)n2)ccc1[N+](=O)[O-],0.0922 ± 0.27,0.0796 ± 0.17,0.0395 ± 0.25,-0.0518 ± 0.22,0.107 ± 0.24,-0.11 ± 0.092,-0.112 ± 0.12,-0.385 ± 0.043,0.0522 ± 0.18,-0.0533 ± 0.064,-0.128 ± 0.018,-0.218 ± 0.095
O=C(/C=C/c1ccc(O)c(O)c1)OCCc1ccccc1 [Caffeic Acid Phenethyl Ester],0.262 ± 0.22,-0.0107 ± 0.28,-0.0638 ± 0.19,-0.511 ± 0.54,0.258 ± 0.25,0.081 ± 0.063,-0.0445 ± 0.18,-0.148 ± 0.19,0.0534 ± 0.011,0.167 ± 0.23,0.0897 ± 0.19,-0.026 ± 0.11
Nc1nc(N)c2nc(-c3ccccc3)c(N)nc2n1 [Triamterene],-0.227 ± 0.52,0.201 ± 0.21,-0.415 ± 0.55,-0.826 ± 0.69,-0.166 ± 0.17,0.00531 ± 0.11,-0.228 ± 0.14,-0.307 ± 0.081,0.0133 ± 0.17,0.0458 ± 0.044,-0.106 ± 0.14,-0.172 ± 0.05
O=C(O)Cn1nnc(-c2cc(N3CCC(Oc4cc(F)ccc4Br)CC3)no2)n1,0.156 ± 0.18,-0.113 ± 0.35,-0.0213 ± 0.23,-0.263 ± 0.086,0.0965 ± 0.076,0.284 ± 0.28,-0.104 ± 0.077,-0.169 ± 0.031,0.023 ± 0.078,0.0314 ± 0.1,-0.0362 ± 0.047,-0.077 ± 0.039
CCCSc1nc(N[C@@H]2C[C@H]2c2ccc(F)c(F)c2)c2nnn([C@@H]3C[C@H](OCCO)[C@@H](O)[C@H]3O)c2n1 [Ticagrelor],-0.0323 ± 0.39,-0.0809 ± 0.34,-0.346 ± 0.6,-0.295 ± 0.55,0.105 ± 0.22,0.142 ± 0.092,0.116 ± 0.073,0.11 ± 0.17,0.0281 ± 0.13,0.0239 ± 0.15,0.0303 ± 0.15,0.0356 ± 0.17
CC1=NN(c2ccc(C(=O)O)cc2)C(=O)C1=Cc1ccc(-c2cc(C)c(C)cc2[N+](=O)[O-])o1,0.346 ± 0.087,0.119 ± 0.31,0.00959 ± 0.33,0.0466 ± 0.28,0.0689 ± 0.0082,0.0648 ± 0.056,0.115 ± 0.086,0.122 ± 0.049,0.0565 ± 0.026,0.089 ± 0.13,0.16 ± 0.095,0.0536 ± 0.043
O=C1c2ccccc2-c2n[nH]c3cccc1c23,0.163 ± 0.22,0.189 ± 0.3,0.168 ± 0.22,0.0566 ± 0.15,0.189 ± 0.091,0.0815 ± 0.16,0.091 ± 0.031,0.055 ± 0.15,0.11 ± 0.054,0.00147 ± 0.049,0.115 ± 0.22,0.0136 ± 0.038
